Data published in the supplement of paper PMC8728848.
This is one part of the list.

Key:
Test in all cases: glycan array binding signal (z-score within array); higher = stronger binding
Settings in all cases: glycan notation: IUPAC condensed, linker removed
[1] = biological target: Fuc(a1-2)[GalNAc(a1-3)]Gal(b1-3)GlcNAc(b1-6)GalNAc
Procedure, shortened: (§1)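 Arrays were curated from the Consortium for Functional Glycomics database, 3228 in total, and kept only where the protein sequence was available. Binding is expressed as a within-array Z-score. This score was averaged across arrays of the same protein sequence at different concentrations or buffers and across linkers, and negative values can be read as non-binding.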

[2] = biological target: Fuc(a1-2)[GalNAc(a1-3)]Gal(b1-4)Glc
Procedure, shortened: as §1

[3] = biological target: Fuc(a1-2)[GalNAc(a1-3)]Gal(b1-4)GlcNAc
Procedure, shortened: as §1

[4] = biological target: Fuc(a1-2)[GalNAc(a1-3)]Gal(b1-4)GlcNAc(b1-2)Man
Procedure, shortened: as §1

[5] = biological target: Fuc(a1-2)[GalNAc(a1-3)]Gal(b1-4)GlcNAc(b1-2)Man(a1-3)[Fuc(a1-2)[GalNAc(a1-3)]Gal(b1-4)GlcNAc(b1-2)Man(a1-6)]Man(b1-4)GlcNAc(b1-4)GlcNAc
Procedure, shortened: as §1

[6] = biological target: Fuc(a1-2)[GalNAc(a1-3)]Gal(b1-4)GlcNAc(b1-2)Man(a1-3)[Fuc(a1-2)[GalNAc(a1-3)]Gal(b1-4)GlcNAc(b1-2)Man(a1-6)]Man(b1-4)GlcNAc(b1-4)[Fuc(a1-6)]GlcNAc
Procedure, shortened: as §1

[7] = biological target: Fuc(a1-2)[GalNAc(a1-3)]Gal(b1-4)GlcNAc(b1-3)Gal(b1-4)GlcNAc
Procedure, shortened: as §1

[8] = biological target: Fuc(a1-2)[GalNAc(a1-3)]Gal(b1-4)GlcNAc(b1-3)Gal(b1-4)GlcNAc(b1-3)Gal(b1-4)GlcNAc
Procedure, shortened: as §1

[9] = biological target: Fuc(a1-2)[GalNAc(a1-3)]Gal(b1-4)GlcNAc(b1-3)GalNAc
Procedure, shortened: as §1

[10] = biological target: Fuc(a1-2)[GalNAc(a1-3)]Gal(b1-4)GlcNAc(b1-3)[Fuc(a1-2)[GalNAc(a1-3)]Gal(b1-4)GlcNAc(b1-6)]GalNAc
Procedure, shortened: as §1

[11] = biological target: Fuc(a1-2)[GalNAc(a1-3)]Gal(b1-4)GlcNAc(b1-6)GalNAc
Procedure, shortened: as §1

[12] = biological target: Fuc(a1-2)[GalNAc(a1-3)]Gal(b1-4)[Fuc(a1-3)]GlcNAc
Procedure, shortened: as §1

[13] = biological target: Fuc(a1-2)[GalNAc(a1-3)]Gal(b1-4)[Fuc(a1-3)]GlcNAc(b1-3)GalNAc
Procedure, shortened: as §1

[14] = biological target: Fuc(a1-2)[GalNAc(a1-4)]Gal(b1-4)GlcNAc
Procedure, shortened: as §1

[15] = biological target: Fuc(a1-2)[GalNAc(b1-3)]Gal
Procedure, shortened: as §1

Fuc(a1-3)GlcNAc = biological target: Fuc(a1-3)GlcNAc
Procedure, shortened: as §1

[16] = biological target: Fuc(a1-3)[Gal(b1-4)]Glc6S
Procedure, shortened: as §1

[17] = biological target: Fuc(a1-3)[Gal(b1-4)]GlcNAc
Procedure, shortened: as §1

[18] = biological target: Fuc(a1-3)[Gal(b1-4)]GlcNAc(b1-2)Man
Procedure, shortened: as §1

[19] = biological target: Fuc(a1-3)[Gal(b1-4)]GlcNAc(b1-2)Man(a1-3)[Fuc(a1-3)[Gal(b1-4)]GlcNAc(b1-2)Man(a1-6)]Man(b1-4)GlcNAc(b1-4)GlcNAc
Procedure, shortened: as §1

[20] = biological target: Fuc(a1-3)[Gal(b1-4)]GlcNAc(b1-2)Man(a1-3)[Fuc(a1-3)[Gal(b1-4)]GlcNAc(b1-2)Man(a1-6)]Man(b1-4)GlcNAc(b1-4)[Fuc(a1-6)]GlcNAc
Procedure, shortened: as §1

[21] = biological target: Fuc(a1-3)[Gal(b1-4)]GlcNAc(b1-3)Gal(b1-3)[Fuc(a1-4)]GlcNAc
Procedure, shortened: as §1

[22] = biological target: Fuc(a1-3)[Gal(b1-4)]GlcNAc(b1-3)Gal(b1-4)[Fuc(a1-3)]GlcNAc
Procedure, shortened: as §1

[23] = biological target: Fuc(a1-3)[Gal(b1-4)]GlcNAc(b1-3)Gal(b1-4)[Fuc(a1-3)]GlcNAc(b1-3)Gal(b1-4)[Fuc(a1-3)]GlcNAc
Procedure, shortened: as §1

[24] = biological target: Fuc(a1-3)[Gal(b1-4)]GlcNAc(b1-3)GalNAc
Procedure, shortened: as §1

[25] = biological target: Fuc(a1-3)[Gal(b1-4)]GlcNAc(b1-6)GalNAc
Procedure, shortened: as §1

[26] = biological target: Fuc(a1-3)[Gal(b1-4)]GlcNAc(b1-6)[Gal(b1-3)GlcNAc(b1-3)]Gal(b1-4)Glc
Procedure, shortened: as §1

[27] = biological target: Fuc(a1-3)[Gal(b1-4)]GlcNAc6S
Procedure, shortened: as §1

[28] = biological target: Fuc(a1-3)[Gal3S(b1-4)]Glc
Procedure, shortened: as §1

[29] = biological target: Fuc(a1-3)[Gal3S(b1-4)]GlcNAc
Procedure, shortened: as §1

[30] = biological target: Fuc(a1-3)[Gal3S(b1-4)]GlcNAc6S
Procedure, shortened: as §1

[31] = biological target: Fuc(a1-3)[GalNAc(b1-4)]GlcNAc
Procedure, shortened: as §1

[32] = biological target: Fuc(a1-3)[GalNAc(b1-4)]GlcNAc6S
Procedure, shortened: as §1

Fuc(a1-4)GlcNAc = biological target: Fuc(a1-4)GlcNAc
Procedure, shortened: as §1

Fuc(b1-3)GlcNAc = biological target: Fuc(b1-3)GlcNAc
Procedure, shortened: as §1

Gal(a1-2)Gal = biological target: Gal(a1-2)Gal
Procedure, shortened: as §1

Gal(a1-3)Gal = biological target: Gal(a1-3)Gal
Procedure, shortened: as §1

Gal(a1-3)Gal(b1-3)GlcNAc = biological target: Gal(a1-3)Gal(b1-3)GlcNAc
Procedure, shortened: as §1

[33] = biological target: Gal(a1-3)Gal(b1-3)GlcNAc(b1-2)Man
Procedure, shortened: as §1

[34] = biological target: Gal(a1-3)Gal(b1-3)GlcNAc(b1-2)Man(a1-3)[Gal(a1-3)Gal(b1-3)GlcNAc(b1-2)Man(a1-6)]Man(b1-4)GlcNAc(b1-4)GlcNAc
Procedure, shortened: as §1

[35] = biological target: Gal(a1-3)Gal(b1-3)GlcNAc(b1-3)GalNAc
Procedure, shortened: as §1

[36] = biological target: Gal(a1-3)Gal(b1-3)GlcNAc(b1-6)GalNAc
Procedure, shortened: as §1

[37] = biological target: Gal(a1-3)Gal(b1-3)[Fuc(a1-4)]GlcNAc(b1-2)Man(a1-3)[Gal(a1-3)Gal(b1-3)[Fuc(a1-4)]GlcNAc(b1-2)Man(a1-6)]Man(b1-4)GlcNAc(b1-4)GlcNAc
Procedure, shortened: as §1

Gal(a1-3)Gal(b1-4)Glc = biological target: Gal(a1-3)Gal(b1-4)Glc
Procedure, shortened: as §1

Gal(a1-3)Gal(b1-4)GlcNAc = biological target: Gal(a1-3)Gal(b1-4)GlcNAc
Procedure, shortened: as §1

B1: Cohesin-marm-DC-ASGPR (protein)
chain: LDITSHHHHHHDDLDAVRIKVDTVNAKPGDTVRIPVRFSGIPSKGIANCDFVYSYDPNVLEIIEIEPGDIIVDPNPDKSFDTAVYPDRKIIVFLFAEDSGTGAYAITKDGVFATIVAKVKEGAPNGLSVIKFVEVGGFANNDLVEQKTQFFDGGVNVGDTTEPATPTTPVTTPTTTDDLDAASSKFQRDLVTLRTDFSNFTSNTLAEIQALTSQGSSLQETIASLKAEVEGHKQELQAGASELQEHNKQKAHLGRCPHTCVCPSSFVCVPVHSEILLRVQQLVQDLNKLSCQVAILKNNATTERTCCPINWVEHQGSCYWFSRSGKTWPEAERYCQLENTHLVVINSREEQNFVQAHLGSAYTWMGLSDPEGVWKWVDGTDYSSGFQNWKPGQPDDWQGHGLGGGEDCAHFHPDGRWNDDVCQRSYHWVCEAGLTQASQDSHAS
glycan array binding signal (z-score) [1]: 3.82
glycan array binding signal (z-score) [2]: -0.285
glycan array binding signal (z-score) [3]: -0.034
glycan array binding signal (z-score) [4]: -0.149
glycan array binding signal (z-score) [5]: -0.267
glycan array binding signal (z-score) [6]: -0.254
glycan array binding signal (z-score) [7]: -0.26
glycan array binding signal (z-score) [8]: -0.272
glycan array binding signal (z-score) [9]: -0.271
glycan array binding signal (z-score) [10]: -0.2
glycan array binding signal (z-score) [11]: 4.32
glycan array binding signal (z-score) [12]: -0.233
glycan array binding signal (z-score) [13]: -0.292
glycan array binding signal (z-score) [14]: 4.11
glycan array binding signal (z-score) [15]: 3.73
glycan array binding signal (z-score) (Fuc(a1-3)GlcNAc): -0.251
glycan array binding signal (z-score) [16]: -0.286
glycan array binding signal (z-score) [17]: -0.254
glycan array binding signal (z-score) [18]: -0.28
glycan array binding signal (z-score) [19]: -0.172
glycan array binding signal (z-score) [20]: -0.291
glycan array binding signal (z-score) [21]: -0.3
glycan array binding signal (z-score) [22]: -0.271
glycan array binding signal (z-score) [23]: -0.299
glycan array binding signal (z-score) [24]: -0.279
glycan array binding signal (z-score) [25]: 1.3
glycan array binding signal (z-score) [26]: -0.301
glycan array binding signal (z-score) [27]: -0.312
glycan array binding signal (z-score) [28]: -0.219
glycan array binding signal (z-score) [29]: -0.235
glycan array binding signal (z-score) [30]: -0.193
glycan array binding signal (z-score) [31]: 3.68
glycan array binding signal (z-score) [32]: 2.7
glycan array binding signal (z-score) (Fuc(a1-4)GlcNAc): -0.178
glycan array binding signal (z-score) (Fuc(b1-3)GlcNAc): -0.264
glycan array binding signal (z-score) (Gal(a1-2)Gal): -0.248
glycan array binding signal (z-score) (Gal(a1-3)Gal): -0.305
glycan array binding signal (z-score) (Gal(a1-3)Gal(b1-3)GlcNAc): -0.003
glycan array binding signal (z-score) [33]: -0.308
glycan array binding signal (z-score) [34]: -0.271
glycan array binding signal (z-score) [35]: -0.265
glycan array binding signal (z-score) [36]: 3.73
glycan array binding signal (z-score) [37]: -0.285
glycan array binding signal (z-score) (Gal(a1-3)Gal(b1-4)Glc): -0.28
glycan array binding signal (z-score) (Gal(a1-3)Gal(b1-4)GlcNAc): -0.291
